Data taken from publication PMC12040169 (PLOS Biology, 2025).
Some of the results follow.

System: T1, C. trachomatis L2/434/Bu expressing GFP (CTL2-GFP)
T1 construct: L2/434/Bu GFP intracellular growth in HeLa cells
Set-up: species or system HeLa; C. trachomatis total inclusion area by high-content imaging, normalised to DMSO
Settings: total inclusion area; 28.5 h, 10 µM; inhibitor
How it was run: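 Post-fluorescence-read fixation, DNA staining with Hoechst and high-content imaging; GFP inclusion area and number per well, and nuclei counts, used as proxies for bacterial growth and host viability.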

| Structure (SMILES) | % of control remaining |
| --- | --- |
| OCCN1CCN(CC(O)COCc2ccccc2)CC1 (stereo not shown) [CBK278262C] | 81.8396 |
| O=C1NC2(CCc3ccccc31)CCN(Cc1ccncc1)C2 (stereo not shown) [CBK284610] | 64.7795 |
| O=C1/C(=N\Nc2ccc([N+](=O)[O-])cc2[N+](=O)[O-])c2cc(Br)ccc2N1CN1CCCCC1 [CBK260927] | 79.7681 |
| CC(C)Cc1ccc(-c2cc(NCCc3ccccn3)ncn2)cc1 [CBK091088] | 83.013 |
| CC(=O)N1CCN(C(=O)NC(C)C)C[C@@H]1C(=O)N[C@@H](CC1CCCCC1)C(N)=O [CBK289633] | 110.498 |
| O=C(O)c1ccc2c(c1)C(=O)N(CCCN1CCOCC1)C2=O [CBK269245] | 117.702 |
| COc1ccc2c(c1)C1(CC(=O)N(C)C1=O)C(=O)N2CCCC(=O)O (stereo not shown) [CBK076109] | 105.557 |
| COc1ccc(S(=O)(=O)N(Cc2cc(F)cc(F)c2)C2CCNCC2)cc1 [CBK165292T] | 74.0327 |
| COCCN(C)S(=O)(=O)c1cc(C)c(Cl)cc1C [CBK043867] | 103.666 |
| CS(=O)(=O)N1CC2(CCN(Cc3ccc(OC(F)(F)F)cc3)CC2)c2ccccc21 [CBK126668] | 81.5394 |
| CN(CCCC(=O)O)c1nc(-c2ccc(Br)cc2)cs1 [CBK299834] | 62.23 |
| O=C(O)c1[nH]c2ccccc2c1/C=N/Cc1ccccc1Cl [CBK294456] | 105.088 |
| CN1CCN(C(=S)c2ccc(OCC(=O)Nc3cccc(C(F)(F)F)c3)cc2)CC1 [CBK266826] | 88.54 |
| Clc1ccc(OCc2nc3ccccc3n2CCOc2ccccc2)c(Cl)c1 [CBK264728] | 104.065 |
| COC(=O)c1ccc(/C=N/N=C2\NC(=O)C(CC(=O)Nc3ccccc3)S2)cc1 (stereo not shown) [CBK264483] | 106.649 |
| CC(=O)N1CCc2c(sc(NC(=O)c3ccc(N(C)C)cc3)c2C#N)C1 [CBK304333] | 23.5877 |
| CC(C)c1ccc(NC(=O)O[C@@H]2CO[C@H]3[C@@H]2OC[C@@H]3NC(=O)C2CC2)cc1 [CBK289471] | 120.365 |
| COC(=O)CCc1ccc(S(=O)(=O)N2CCCN(Cc3cccc4c3OCO4)CC2)cc1 [CBK062993] | 63.4392 |
| Cc1cccc(OCCCn2cncc2-c2cnn(C)c2)c1 [CBK281763] | 103.555 |
| Cc1cc(C)n(-c2ccc(C(=O)NCC3(C)COC3)cc2)n1 [CBK281756] | 99.0785 |

| Structure (SMILES) | % of control remaining |
| --- | --- |
| O=C(Nc1ccc(NC(=O)c2ccccc2O)cc1)c1cnc(-c2ccccc2)c(-c2ccncc2)c1 [CBK037490] | 69.6479 |
| c1cn(CC2(Cn3ccnc3)COC2)cn1 [CBK021839] | 4.192 |
| O=C(O)c1ccc(C(=O)NC2CCN(CC(F)(F)F)C2=O)s1 (stereo not shown) [CBK305524] | 100.082 |
| O=C1c2ccccc2C(=O)N1CCCc1nc2c3c4c(sc3ncn2n1)CCCCC4 [CBK268540] | 124.468 |
| O=P(O)(CCc1ccncc1)CN1CCCCC1 [CBK262323] | 89.8842 |
| NC(=O)CN1CCC2(CCN(C(=O)c3cc(F)c(F)cc3F)C2)C1 (stereo not shown) [CBK132140] | 99.5996 |
| CCOC(=O)CN(C)Cc1ccccc1Br [CBK261891] | 95.7031 |
| CCCCc1ccc(S(=O)(=O)n2ccc3c(N4CCNCC4)cccc32)cc1 [CBK003744C] | 43.0065 |
| CCC1CCCCN1C(=O)c1ccc(NC2CC2)nc1 (stereo not shown) [CBK304815] | 73.4345 |
| Cc1ccc(-n2ncc3c(NCCc4ccc(S(N)(=O)=O)cc4)ncnc32)c(C)c1 [CBK265676] | 106.434 |
| CN1CCN(c2ccc(NC(=O)c3cc([N+](=O)[O-])ccc3N3CCOCC3)cc2)CC1 [CBK269425] | 106.8 |
| COC(=O)c1c(NC(=S)NCCn2cc(Br)cn2)sc2c1CCC2 [CBK266905] | 120.145 |
| O=C(NCCc1cccs1)Nc1ccc(F)c(F)c1F [CBK044543] | 90.6784 |
| Cc1nn(C)c(C(=O)NNC(=S)Nc2ccc(S(N)(=O)=O)cc2)c1Br [CBK266963] | 127.01 |
| Fc1cccc(C2NC(=S)NC3=C2N2CCC3CC2)c1 (stereo not shown) [CBK288503] | 86.8744 |
| Cc1ccc(N(CC(=O)NCC2CCCO2)S(C)(=O)=O)cc1 (stereo not shown) [CBK058709] | 73.3145 |
| CCCCC(c1cccnc1)N(C)C(=O)c1cc(CC)[nH]c(=O)c1 (stereo not shown) [CBK307216] | 100.156 |
| Cc1cc2ncn(CC(=O)NC3Cc4ccccc4C3)c2cc1C [CBK200261] | 0 |
| CC(=O)N1CCc2nc(CC3CC3)nc(NCCn3ccnn3)c2CC1 [CBK306933] | 10.1306 |
| Nc1ncnc(NCCCN2CCOCC2)c1[N+](=O)[O-] [CBK267267] | 98.7421 |
